The least precise scores are not listed. The source holds two more conditions with little spread; they are left out. In variant names, del marks residues removed and ins residues inserted between the two positions. For part of these data: How much ogerin was present is not stated here.

To fix the notation:
B1: GPR68, Q15743 (parent)
chain: MGNITADNSSMSCTIDHTIHQTLAPVVYVTVLVVGFPANCLSLYFGYLQIKARNELGVYLCNLTVADLFYICSLPFWLQYVLQHDNWSHGDLSCQVCGILLYENIYISVGFLCCISVDRYLAVAHPFRFHQFRTLKAAVGVSVVIWAKELLTSIYFLMHEEVIEDENQHRVCFEHYPIQAWQRAINYYRFLVGFLFPICLLLASYQGILRAVRRSHGTQKSRKDQIQRLVLSTVVIFLACFLPYHVLLLVRSVWEASCDFAKGVFNAYHFSLLLTSFNCVADPVLYCFVSETTHRDLARLRGACLAFLTCSRTGRAREAYPLGAPEASGKSGAQGEEPELLTKLHPAFQTPNSPGSGGFPTGRLA

Data set [1] covers variants of B1. The data set can be described thus: cAMP reporter score (Enrich2 score, wild type = 0); higher = more signal; HEK293T, FACS bins.
The variants in data set [2] derive from B1. The data set is described as follows: surface expression score (Enrich2 score, wild type = 0); higher = more signal; HEK293T, FACS bins.

In the case of MGNITADNSSMSCTIDHTIHQTLAPVVYVTVLVVGFPANCLSLYFGYLQIKTRNELGVYLCNLTVADLFYICSLPFWLQYVLQHDNWSHGDLSCQVCGILLYENIYISVGFLCCISVDRYLAVAHPFRFHQFRTLKAAVGVSVVIWAKELLTSIYFLMHEEVIEDENQHRVCFEHYPIQAWQRAINYYRFLVGFLFPICLLLASYQGILRAVRRSHGTQKSRKDQIQRLVLSTVVIFLACFLPYHVLLLVRSVWEASCDFAKGVFNAYHFSLLLTSFNCVADPVLYCFVSETTHRDLARLRGACLAFLTCSRTGRAREAYPLGAPEASGKSGAQGEEPELLTKLHPAFQTPNSPGSGGFPTGRLA [A52T], the cAMP reporter score in data set [1] (pH 5.5) was -0.798; in data set [1] (pH 6), -0.747; in data set [1] (pH 6, modulator: ogerin) it was -0.955; in data set [1] (pH 6.5, modulator: ogerin) it was -0.475. The surface expression score in data set [2] was -0.701.

As to MGNITADNSSMSCTIDHTIHQTLAPVVYVTVLVVGFPANCLSLYFGYLQIKSRNELGVYLCNLTVADLFYICSLPFWLQYVLQHDNWSHGDLSCQVCGILLYENIYISVGFLCCISVDRYLAVAHPFRFHQFRTLKAAVGVSVVIWAKELLTSIYFLMHEEVIEDENQHRVCFEHYPIQAWQRAINYYRFLVGFLFPICLLLASYQGILRAVRRSHGTQKSRKDQIQRLVLSTVVIFLACFLPYHVLLLVRSVWEASCDFAKGVFNAYHFSLLLTSFNCVADPVLYCFVSETTHRDLARLRGACLAFLTCSRTGRAREAYPLGAPEASGKSGAQGEEPELLTKLHPAFQTPNSPGSGGFPTGRLA [A52S], the cAMP reporter score in data set [1] (pH 5.5) stood at 1.53; in data set [1] (pH 6), 0.847; in data set [1] (pH 6, modulator: ogerin) it was 1.73; in data set [1] (pH 6.5, modulator: ogerin), 0.65.

The values are drawn from the GPR68 mutational scans of Howard et al. (2025).
